The record followed here is US11178870B2 (priority 2017, dated 2021).

What all share (type): in vivo
The subject of one assay is Puccinia recondita. The experiment in a line: Test Example E: Brown rust on wheat. The conditions noted are these: Brown rust on wheat.
The next assay has as its system Plasmopara viticola. The experiment in a line: Test Example G: Downy mildew on vine. The following applies: Downy mildew on vine; 250 ppm sprayed, 2.5 ml/pot; 7 to 10 days after inoculation.
The test system of another assay is Botrytis cinerea. The experiment in a line: Test Example B: Gray mold on tomato. The conditions noted are these: Gray mold on tomato.
Assay [1] has as its system Blumeria graminis f. sp. hordei. The experiment in a line: Test Example D: Powdery mildew on barley. The following applies: Powdery mildew on barley.
The test system of a further assay is Alternaia brassicicola. The experiment in a line: Test Example C: Alternaria sooty spot on cabbage. The following applies: Alternaria sooty spot on cabbage.

Each structure is given as a SMILES string.

Turning to `CCn1c(-c2c(F)cc(F)cc2F)c(-n2nc(C)cc2C)ccc1=O` [Compound 93], the “Test E control value” with Puccinia recondita is on record as “L (L shows the control value of 50% or less)”. For the same molecule, the “Test G control value” in the assay with Plasmopara viticola was “L (L shows the control value of 50% or less)”. For the same molecule, the “Test B control value” in the assay with Botrytis cinerea is on record as “H (H shows the control value more than 50%)”. Moreover, the “Test D control value” in assay [1] is recorded as “H (H shows the control value more than 50%)”. Moreover, in the assay with Alternaia brassicicola, the “Test C control value” was “H (H shows the control value more than 50%)”.
Regarding `CCn1c(-c2c(F)cc(F)cc2F)c(-n2nc(C)c(Cl)c2C)ccc1=O` [Compound 95], in the assay with Puccinia recondita, the “Test E control value” is on record as “L (L shows the control value of 50% or less)”. In addition, the “Test G control value” with Plasmopara viticola was “L (L shows the control value of 50% or less)”. Further, the “Test B control value” in the assay with Botrytis cinerea is reported as “H (H shows the control value more than 50%)”. For the same molecule, in assay [1], the “Test D control value” is “H (H shows the control value more than 50%)”. Moreover, the “Test C control value” in the assay on Alternaia brassicicola is “H (H shows the control value more than 50%)”.
Take `CCn1c(-c2c(F)cc(F)cc2F)c(-c2ocnc2Br)cc(Br)c1=O` [Compound 97]: the “Test E control value” in the assay with Puccinia recondita is listed as “H (H shows the control value more than 50%)”. Moreover, in the assay on Plasmopara viticola, the “Test G control value” is recorded as “H (H shows the control value more than 50%)”. Also, in the assay with Botrytis cinerea, the “Test B control value” is recorded as “H (H shows the control value more than 50%)”. For the same molecule, the “Test D control value” in assay [1] is recorded as “H (H shows the control value more than 50%)”. Also, the “Test C control value” with Alternaia brassicicola was “H (H shows the control value more than 50%)”.
`Cn1c(-c2c(F)cccc2F)c(-c2cccnc2Cl)ccc1=O` [Compound 99]: in the assay with Puccinia recondita, the “Test E control value” was “H (H shows the control value more than 50%)”. Besides, the “Test G control value” with Plasmopara viticola is “H (H shows the control value more than 50%)”. Moreover, the “Test B control value” in the assay with Botrytis cinerea is given as “H (H shows the control value more than 50%)”. Also, in assay [1], the “Test D control value” is “H (H shows the control value more than 50%)”. The “Test C control value” with Alternaia brassicicola is listed as “H (H shows the control value more than 50%)”.
In the case of `Cn1c(-c2c(F)cc(F)cc2F)c(-c2cccnc2Cl)cc(Cl)c1=O` [Compound 100], in the assay with Puccinia recondita, the “Test E control value” is recorded as “H (H shows the control value more than 50%)”. Also, in the assay on Plasmopara viticola, the “Test G control value” is reported as “L (L shows the control value of 50% or less)”. Moreover, the “Test B control value” with Botrytis cinerea is reported as “H (H shows the control value more than 50%)”. Besides, the “Test D control value” in assay [1] was “H (H shows the control value more than 50%)”. Moreover, in the assay on Alternaia brassicicola, the “Test C control value” is listed as “H (H shows the control value more than 50%)”.
On to `CCn1c(-c2c(F)cc(F)cc2F)c(-n2cc(C)cn2)cc(Br)c1=O` [Compound 101], for which the “Test E control value” with Puccinia recondita was “H (H shows the control value more than 50%)”. For the same molecule, the “Test G control value” with Plasmopara viticola is on record as “L (L shows the control value of 50% or less)”. In addition, the “Test B control value” in the assay on Botrytis cinerea was “H (H shows the control value more than 50%)”. Also, in assay [1], the “Test D control value” is recorded as “H (H shows the control value more than 50%)”. In addition, the “Test C control value” with Alternaia brassicicola is given as “H (H shows the control value more than 50%)”.
On to `CCn1c(-c2c(F)cc(OC)cc2F)c(-c2oc(Br)nc2Br)cc(Br)c1=O` [Compound 102], for which, in the assay with Puccinia recondita, the “Test E control value” was “L (L shows the control value of 50% or less)”. In addition, in the assay with Plasmopara viticola, the “Test G control value” is “H (H shows the control value more than 50%)”. Further, the “Test B control value” with Botrytis cinerea is “H (H shows the control value more than 50%)”. In addition, in assay [1], the “Test D control value” is recorded as “L (L shows the control value of 50% or less)”. Also, the “Test C control value” with Alternaia brassicicola is recorded as “H (H shows the control value more than 50%)”.
On to `CCn1c(-c2c(F)cc(OC)cc2F)c(-c2ocnc2Br)cc(Br)c1=O` [Compound 103], for which the “Test E control value” with Puccinia recondita is “H (H shows the control value more than 50%)”. Further, in the assay on Plasmopara viticola, the “Test G control value” was “L (L shows the control value of 50% or less)”. In the assay with Botrytis cinerea, the “Test B control value” was “H (H shows the control value more than 50%)”. For the same molecule, the “Test D control value” in assay [1] is “H (H shows the control value more than 50%)”. In addition, the “Test C control value” with Alternaia brassicicola is recorded as “H (H shows the control value more than 50%)”.
`Cn1c(-c2c(F)cc(F)cc2F)c(-c2cccnc2Cl)cc(Br)c1=O` [Compound 104]: the “Test E control value” with Puccinia recondita was “H (H shows the control value more than 50%)”. Also, in the assay on Plasmopara viticola, the “Test G control value” was “L (L shows the control value of 50% or less)”. Also, the “Test B control value” with Botrytis cinerea is recorded as “H (H shows the control value more than 50%)”. Besides, in assay [1], the “Test D control value” is listed as “H (H shows the control value more than 50%)”. In addition, in the assay with Alternaia brassicicola, the “Test C control value” is recorded as “H (H shows the control value more than 50%)”.
Take `Cn1c(-c2c(F)cccc2F)c(-c2cccnc2Cl)cc(Cl)c1=O` [Compound 105]: the “Test E control value” with Puccinia recondita is on record as “H (H shows the control value more than 50%)”. In the assay on Plasmopara viticola, the “Test G control value” is recorded as “L (L shows the control value of 50% or less)”. The “Test B control value” in the assay with Botrytis cinerea was “H (H shows the control value more than 50%)”. Besides, the “Test D control value” in assay [1] was “L (L shows the control value of 50% or less)”. In addition, the “Test C control value” in the assay with Alternaia brassicicola is “H (H shows the control value more than 50%)”.
Take `Cn1c(-c2c(F)cccc2F)c(-c2cccnc2Cl)cc(Br)c1=O` [Compound 106]: in the assay with Puccinia recondita, the “Test E control value” is given as “H (H shows the control value more than 50%)”. Besides, in the assay with Plasmopara viticola, the “Test G control value” was “H (H shows the control value more than 50%)”. Moreover, the “Test B control value” in the assay on Botrytis cinerea is given as “H (H shows the control value more than 50%)”. Also, the “Test D control value” in assay [1] was “L (L shows the control value of 50% or less)”. The “Test C control value” in the assay on Alternaia brassicicola was “H (H shows the control value more than 50%)”.
Take `CCn1c(-c2c(F)cc(F)cc2F)c(-c2ocnc2Cl)cc(Br)c1=O` [Compound 107]: the “Test E control value” in the assay with Puccinia recondita is on record as “H (H shows the control value more than 50%)”. In addition, the “Test G control value” with Plasmopara viticola is “H (H shows the control value more than 50%)”. Also, in the assay on Botrytis cinerea, the “Test B control value” was “H (H shows the control value more than 50%)”. Further, the “Test D control value” in assay [1] is reported as “H (H shows the control value more than 50%)”. Besides, the “Test C control value” with Alternaia brassicicola was “H (H shows the control value more than 50%)”.
Take `CCn1c(-c2c(F)cc(F)cc2F)c(-n2cc(C)c(C)n2)ccc1=O` [Compound 109]: the “Test E control value” in the assay on Puccinia recondita is “H (H shows the control value more than 50%)”. Moreover, in the assay with Plasmopara viticola, the “Test G control value” is given as “L (L shows the control value of 50% or less)”. Also, the “Test B control value” in the assay with Botrytis cinerea is “H (H shows the control value more than 50%)”. In assay [1], the “Test D control value” is recorded as “H (H shows the control value more than 50%)”. Besides, the “Test C control value” in the assay on Alternaia brassicicola is “H (H shows the control value more than 50%)”.
As for `O=c1c(Cl)cc(-n2cc(Cl)cn2)c(-c2c(F)cc(F)cc2F)n1CC(F)F` [Compound 110], in the assay with Puccinia recondita, the “Test E control value” is “H (H shows the control value more than 50%)”. The “Test G control value” in the assay with Plasmopara viticola was “L (L shows the control value of 50% or less)”. For the same molecule, in the assay on Botrytis cinerea, the “Test B control value” is “H (H shows the control value more than 50%)”. The “Test D control value” in assay [1] is reported as “H (H shows the control value more than 50%)”. Further, the “Test C control value” in the assay on Alternaia brassicicola is on record as “H (H shows the control value more than 50%)”.
Consider `COc1cc(F)c(-c2c(-n3cc(Cl)cn3)cc(Cl)c(=O)n2CC(F)F)c(F)c1` [Compound 111], for which, in the assay with Puccinia recondita, the “Test E control value” is listed as “H (H shows the control value more than 50%)”. Also, the “Test G control value” in the assay on Plasmopara viticola is reported as “L (L shows the control value of 50% or less)”. Also, the “Test B control value” with Botrytis cinerea is given as “H (H shows the control value more than 50%)”. The “Test D control value” in assay [1] is given as “H (H shows the control value more than 50%)”. In addition, the “Test C control value” in the assay on Alternaia brassicicola is given as “H (H shows the control value more than 50%)”.
